# Source: PubChem BioAssay AID330 (DTP/NCI, 2004)
# Toxic doses and inconclusive results are not listed. Not every entry of the source has a single result; some have several. The list is limited to them. There may be further records. The values listed for one entry differ for a reason that is not stated; they may come from other doses, times, organisms or constructs than stated. Records carry a tag for their origin. Letters hold for one entry only.
# Tested on: P388 leukemia ip, CD2F1 mice, survival T/C
# Assay: NCI In Vivo Anticancer Drug Screen. Data for tumor model P388 Leukemia (intraperitoneal) in CD2F1 (CDF1) mice
# Conditions: endpoint: median survival time, higher = longer survival
smiles,measurement,setting,value
COc1cc2c(c(OC)c1OC)-c1ccc(SC)c(=O)cc1[C@@H](NC1OC(CO)C(O)C(O)C1O)CC2 (some centres undefined),T/C,"dose: 50.0 mg/kg/injection, schedule: Q01DX009 (ip), vehicle: saline","152 % of control [sample A] and 105 % of control, 150 % of control, 170 % of control [sample B]"
COc1cccc2c1C(=O)c1c(O)c3c(c(O)c1C2=O)C[C@@](O)(/C(C)=N/NC(=O)c1ccccc1)C[C@@H]3OC1CC(N)C(O)C(C)O1 (some centres undefined),T/C,"dose: 4.0 mg/kg/injection, schedule: Q04DX003 (ip), vehicle: water",97 % of control and 196 % of control
O=C1CN(CCN2CC(=O)N(CN3CCOCC3)C(=O)C2)CC(=O)N1CN1CCOCC1,T/C,"dose: 25.0 mg/kg/injection, schedule: Q01DX005 (ip), vehicle: water",111 % of control and 152 % of control
COC(=O)Nc1nc2ccc(C3(c4ccc(F)cc4)OCCO3)cc2[nH]1,T/C,"dose: 80.0 mg/kg/injection, schedule: Q04DX003 (ip), vehicle: saline",95 % of control and 155 % of control
